These results are taken from US20060270596A1 (CENTRE NATIONAL DE LA RECHERCHE SCIENTIFIQUE CNRS, published 2006).

In test [1] the target is T1, GST-THAP2 133-228 (chemokine-binding domain of THAP2) (human, UniProt Q9H0W7 133-228).
T1 construct: Immobilized on glutathione sepharose; not shown: glutathione S-transferase encoded by vector pGEX2T (Amersham Biosciences)
The experiment in a line: GST pull-down: in vitro translated 35S-labelled protein on the GST fusion immobilised on glutathione sepharose, SDS-PAGE, fluorography.

Test [2] concerns the target T2, GST (glutathione S-transferase) control protein (UniProt P08515 = GST).
T2 construct: Negative control in GST pull-down assays; also called GST beads; GST alone
Put plainly: GST pull-down, negative control: in vitro translated 35S-labelled chemokine or cytokine on GST alone immobilised on glutathione sepharose, SDS-PAGE, fluorography.

B1: human chemokine IP10/CXCL10, mature form ([…]) (ligand)
chain: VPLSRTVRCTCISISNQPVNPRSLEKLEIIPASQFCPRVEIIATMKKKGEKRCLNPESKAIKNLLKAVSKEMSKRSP
notes: Residues are printed against GenBank NM-001565
With B1, the binding result in test [1] and in test [2] was “no binding” each time.
